# Assay results from the supplement of paper PMC12632987.
# Over roughly 4,500 sequences, “median log2 fold change of GCK-ALFA target abundance (FLAG IP / Myc IP barcode read proportion)” has its median near 0.078; the lowest 2% begin near -0.6. Some of the results follow.
# B1: GBRAP_128_3288 (protein)
# chain: APEELLEEVRELIERIKNSDAAEARAIAEELARLMGEVSVEEAEAIAEIIRELLPELSAEQLEILADVLDAAMPEMDPEKAAIAADVASDALLEAEELEE
# B2: GBRAP_43_5776 (protein)
# chain: SKEIVEGALDTAKLMAENPEIPDDQKVKAIKAAFDLAADEGYVDEKEVKEVIDAANASLSAEALEELAKHLEELAKKYPEFAKVFKAARKEVEAAIEKKR
# B3: GBRAP_137_3683 (protein)
# chain: KTLKATIKRIDGRTYVLIESDDESLAEELLDAVLDALDELGLKATVASLVENGKVYIEIDFPEDVTKEQVLALLKLVAERLGVDLVVKDEDTGETLEYKA
# B4: GBRAP_78_6720 (protein)
# chain: ELEEELEKAIEVLNKAAKAALSLPLEESNELLDLLVEATNLLMEILEENLPKEEAIKKLKEAIELLEKALKLLGGKYPELKKLVEKAKELAEKALELAKK
# B5: GBRAP_45_5806 (protein)
# chain: SAAKQAALDAALAALDAAIAEAQKLAAKDPERWGKYLARLEELRARLKAHADDAAALEEIERELEALLKEALADPNATAELLDALLDAANAVAEAAELLK
# B6: GBRAP_125_3095 (protein)
# chain: EMEEILEALKLLAKALGFSEEEAEELAELAAKSSIKQTLYALFKAEGYEELAELVEKLTEEEAKELLLELAKWLKENPNATKEEVVKKAKEIAEKLLKKS
# B7: GBRAP_184_5232 (protein)
# chain: KVLEREIEAENAEELAAQLAAVAAEAAAAGARVRLILRVKELTREKAEVIAARLREMAAAGLVDLVEVESTTRIEEENIDLLVEAAREAGVRLVLALEEE
# B8: GBRAP_166_4951 (protein)
# chain: AQEAIRAALAARIEELAAQMRTADAEERLALYAEIAEALAEAREAGLSSADLLALATRALRLVKEAGGSVRQLLGVLFMFVDLTEEERDELAAAADAVEA
# B9: GBRAP_26_5492 (protein)
# chain: FVEKVIKELEKRTREILKDESEDLRAAVIAEAIDLLLEAAEEFEKNLDDEEKQEKAIKEATEELRKELEDFGLSEEKIKKLVEALREAMEAIKAALQAER
# B10: GBRAP_195_5406 (protein)
# chain: KKVESKVLRITASDTEEEILEKIEKIVREVKEKTNADLVLVVARDPSVPEETVLKAVKEAEKKYPSIKITVEIFDDISLPLETLERFAEMERLNLEEEKE
# B11: GBRAP_48_5837 (protein)
# chain: SEEKKEKAIEEILKIIEETAKLLEEAEKEGLSEAAFEAILIDAAEEMKEVLDKYLGLGEAWDALPLEERLKIVRELVETYREKGREAAKKKIREVIEELE
# B12: GBRAP_80_6790 (protein)
# chain: AEERLKKHLEEIAKLDPEIAKKVEEIIKIAKSLGVSKETLAEFAEAIAKLLKVDKEKAREIVEETLEELEEEKEEGNTANAEATLRVHAGEALLEVEELE
# B13: GBRAP_57_6460 (protein)
# chain: MSPLEKAIKHFEKAIALVKAGAPLEEILAEVQKGLDHLDAATLRDIALLLDPEAPADMSAEEAKAHILELVRRALEEEGREAALRMLELMLGQVEMDALE
# B14: GBRAP_166_4987 (protein)
# chain: MQEEIVEKTKKEIDELAEKMKTANKEEQTELIIEMAEKIAEAKKAGISEEKLLELVEYALKLVKELGLSVKVAAGIIEEVAEFDEEMREKIRKIAEKVEK
# B15: GBRAP_78_6681 (protein)
# chain: KVEEELEKAIEELNKAAKLLSKMKTEEALDILGKVIDAASTVEEAYFGEANLEDLEKALKTAEEALKEVEKIDTEEAKKVAEELKKAIEYIKKAIELLKK
# B16: GBRAP_52_6245 (protein)
# chain: MRERLRALAEELLALVKAGRLEEARALAKRIAEELDEEELRLFIEEFARLAAEARREDIDAVWRATEILAEALEAAGKPEILVDDLEAETARAAVEVEAR
# B17: GBRAP_9_7141 (protein)
# chain: MEEVLKKLIELAEEAKEDALKVAPEEKKPIVEKSFNEFIEELKKLLEDKNTTKEEIKETVEKGIKKIKETFKKNFDPETYKQLEAIILTFEVEAEEIIEE
# B18: GBRAP_52_6222 (protein)
# chain: SAEEARALAEEIVRTVREEGVEAAVARLKELAAAHSPELVAAVLAEIVRLAEGESLETAEALLDAVLAAEDALEAAGVSEADVSDAIAGLAAVAVKLEAA
# B19: GBRAP_35_5617 (protein)
# chain: EIDEETTEMLVAVIEDLTLAVPDLPVETLVQMANQLIESARELGKELKDKPEQLERLAKALEKLRDAIEKHHGDDPLAQETLKKIEKAIEELKKAAKEAK
# B20: GBRAP_160_4405 (protein)
# chain: SESFEKLKKEVKEIFEETLKLIEGQTPEEQKVIVRVSLGEILLLAFENEEVSDEQEEELAKILDEAEKRIEKAIEEGEEAVKEEIKEAKEKVLKFIESLK
# B21: GBRAP_160_4573 (protein)
# chain: SENLEKLIKEIREITDEAVEFLEGQSFAERLAVVRVAVGDILLLLEENEEVSEEVLEKADEIGDELIATIEANPDLTAAEIQALLREATEKIIKLIKEEE
# B22: GBRAP_125_3131 (protein)
# chain: SMEEILENLAVFLKALGFSEDDIEEAVEEARKHGIKGTMYAIALALGEEELAELVEKLTEEEVKEILKKLKEELEKNPDLTPEEVIELFKKLAEEVLKSR
# B23: GBRAP_78_6645 (protein)
# chain: EIEELIDKAIEHLSKAAKLAKQLPEDQRNELLYHIVEAESYLLLSEEEGFDLELLEKALEELEKAKELVKKLDSPVAPQILEELEKAIELVKKAIKLKKE
# B24: GBRAP_9_7116 (protein)
# chain: MAVDKATLAAAVADAEASLKALAADLEDPAVAAIVDAAIAEMKALVAVEGITLEELEERLDAIVAAATARAKAEVSPEIANALEAELLTEREAILEAVEA
# B25: GBRAP_52_6043 (protein)
# chain: MEEEMRKLAEEILALYKAGKREEAKALIKEVVETKSEEELKLLGEKLAELAKEAPPEELDYYMEAAFDLADALEEAGYDEVLADDLEARVAAAAVENLKK
# B26: GBRAP_166_4947 (protein)
# chain: SLEEIVEETRKFIEELAEKMKNANPEERLDIYAEIAEKIREAKEKGVPKEEILELIRLALELTKEAGGDVDQLVGVLHMFVDLSEEERDEVEKIAEEVKK
# B27: GBRAP_160_4129 (protein)
# chain: KEELKKLIEEIREITEEAIKMIEGETVENAKVIAKVALGEIIMLAESNEAVSEELEEKIDEIADEAEEYLEENPDLTVEEIKELLREAAEKVIELVKEEI
# B28: GBRAP_80_6816 (protein)
# chain: MEEEIEKALKEIEKIDPELAKKVREAVEIAKELGVPEELLAALVRAIAELAKIDPEKARKIVEELLKRLKEAKAAGDLEAAREAIEDATAEALEAVMDLE
# B29: GBRAP_14_3861 (protein)
# chain: MEALIKAVEETAESTKELVAEIAPEHAEEISAKVEELAKRIIEKIKEEDLDIEEVEELVDEAAAELAAWLAAHGYLSPTEIAALRAHILNEALLRLEEIE
# Biological target: GABARAP, O95166
# Assay: median log2 fold change of GCK-ALFA target abundance (FLAG IP / Myc IP barcode read proportion) (log2 ratio); each designed protein is fused to an ALFA-tag nanobody in HEK293 cells to bring the named protein to FLAG-tagged glucokinase (GCK); Myc marks an untargeted standard; higher = target protein stabilised (more abundant)
# Details: target protein: 3xFLAG-MCP-GCK-ALFA reporter; HEK293 landing pad (RPLP)
# Protocol: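 LABEL-seq trans screen in HEK293 landing-pad cells. Each de novo designed 100-aa effector handle, binding the indicated effector (E3 ligase, DUB or autophagy protein), is fused to a constant NbALFA target handle and induced with 2 ug/mL doxycycline. A FLAG-MCP-GCK-ALFA target and a Myc-MCP standard reporter were transfected, and after 48 h circRNA barcodes were recovered by anti-FLAG and anti-Myc IP and sequenced. The value is the median across barcodes (at least 3 per design) of log2(FLAG/Myc read-proportion ratio), with the two transfection replicates pooled. Negative values mean degradation and positive values mean stabilisation of the target.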
# GABARAP, O95166, sequence (O95166 whole entry, the tested form may be a part): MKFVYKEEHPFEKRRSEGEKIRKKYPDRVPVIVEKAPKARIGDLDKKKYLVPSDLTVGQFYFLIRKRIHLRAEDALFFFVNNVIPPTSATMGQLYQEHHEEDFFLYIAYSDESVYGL
row,Binder,median log2 fold change
1,B1,0.138
2,B2,0.272
3,B3,-0.135
4,B4,0.174
5,B5,0.259
6,B6,0.259
7,B7,-0.176
8,B8,0.055
9,B9,0.122
10,B10,0.233
11,B11,0.133
12,B12,0.101
13,B13,0.278
14,B14,0.341
15,B15,0.367
16,B16,0.122
17,B17,0.328
18,B18,0.141
19,B19,0.243
20,B20,-0.218
21,B21,-0.0191
22,B22,0.0523
23,B23,-0.00333
24,B24,0.184
25,B25,-0.047
26,B26,0.151
27,B27,0.0536
28,B28,0.128
29,B29,0.203
